# Results: the supplement of paper PMC11417369
# ± gives the standard deviation of the averaged measurements. The list shows a part of the results.
# System: PfAP2-LT AP2 domain (GST-tagged)
# Assay: gcPBM binding intensity (ln(normalized median fluorescence intensity)); higher = stronger DNA binding
# Method in brief: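 Binding intensity is defined as the maximum Masliner-normalised natural-log median intensity across replicate spots for either probe orientation. It was measured on an Agilent 4 × 180k array of primer-extended double-stranded 36-bp intergenic genomic probes and negative controls, to which GST-tagged P. falciparum DNA-binding domains made in E. coli were applied for 1 h in 1× PBS with 1% milk, 0.2 mg/ml BSA, 0.5% salmon testes DNA and 0.03% Triton X-100. Detection was by Alexa488 anti-GST antibody and scanning at 488 nm.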
row,Sequence,gcPBM binding intensity (ln)
1,TTTTATTTATCATACACACACAGAAAAAAAAAAAAA [CACACA_site158],8.89 ± 0.32
2,GAATGTTTATTATATGCATGTTATATATATGAATAT [TGCATGCA_site4],8.85 ± 0.32
3,CCTTTCCTTTTATAAGTGCATATAACAAATGTATAC [GTGCAC_site9872],8.72 ± 0.35
4,TTTTTTTTTCTTTCTTTCTTTTGTAAAAACCTCAAA [CACACA_negctrl_site723],8.26 ± 0.55
5,ATATGTATATATAAAAGTACGCGTAAAAAAAAAAAA [XGTACX_site5377],9.34 ± 0.42
6,TCTTTTTATATTTATTGTACATAAAAAATAAAACAT [XGTACX_site4073],8.41 ± 0.35
7,TATAAACCAATGAACACACAAACATATATATATATA [CACACA_site3168],9.88 ± 0.38
8,TAAATATATAAATACACACACATACACAAAAAAAAA [CACACA_site5890],9.68 ± 0.27
9,TATACACCCTAAAATACACACACACCCACCCATATA [CACACA_site9380],10.06 ± 0.078
10,TATTAATTCTTAAATTTTTTTTTTTAATTCCTAGGA [CACACA_negctrl_site879],8.02 ± 0.53
11,ACAACATTTCTCAAATGTACATAATATAATTTATAT [XGTACX_site3224],8.71 ± 0.39
12,TATATATAATACAGTATGCACTATTTTTATTAAAAA,8.4 ± 0.47
13,CAATAATTTTTTAAATGTACTTTATTATAATTTAAT [XGTACX_site135],8.32 ± 0.46
14,GAATGAATCAATGTTTGTACTCAACAAATTATAAGG [XGTACX_site5122],8.73 ± 0.43
15,GCCTTCCTTCTAAATGCACACGGAAAGTATAAATGT [CACACA_site8797],9.04 ± 0.31
16,GTCTAACAACCAAACGCACACACACTAATAAAAAAA [CACACA_site8026],9.71 ± 0.35
17,TTTTCTTACATCTTATAAAAAAAAATATATATTATA [GTGCAC_negctrl_site118],7.96 ± 0.51
18,TTATATACATAAAAATGTACTTTTTATAAAATATAT [XGTACX_site8281],8.38 ± 0.37
19,AAGTTAGTATTCTGCTGTACTTCTATATATAAGTGT [XGTACX_site7678],8.87 ± 0.4
20,ATAAAATAATCTTATGCACACCAAAAATTTATATAA [CACACA_site8332],8.79 ± 0.41
21,ATATATCAAAAATGATGACATAAATATATTAATTTA [TGCATGCA_negctrl_site259],8.56 ± 0.47
22,TTTTTGTAAAATAAACGTACAAAACAATTGTTCATT [XGTACX_site6537],8.51 ± 0.45

row,Sequence,gcPBM binding intensity (ln)
1,TATCTGTATGTATGTACACACAAAAAATGGAATATA [CACACA_site5947],9.2 ± 0.45
2,TATTTTAAAACAAAAATATAATTTCATAAAAATATA [CACACA_negctrl_site394],8.06 ± 0.45
3,TAATATATATATTTATGTACATATAAATTTTCTCCT [XGTACX_site4496],8.65 ± 0.41
4,AAAAAAAAAAAAAGCACACATATAAATATGAATAAA [CACACA_site1393],8.79 ± 0.59
5,AAAAAAAAAAAAAACACACACATACACCCAAAAATG [CACACA_site4223],9.66 ± 0.24
6,ATATACACACAAAAACGTACACATATATATATGTAT [XGTACX_site2673],9.48 ± 0.44
7,GGTATAATAATATATAGTACACACAAAAATGGAAGT [XGTACX_site7058],9.3 ± 0.35
8,ACAATAAAGAAGTGTACACATATATCAATAAAAAAA [CACACA_site5228],8.96 ± 0.59
9,AAAATAATATTTAATACACACATAATTTTAATATAA [CACACA_site4588],8.67 ± 0.42
10,AAAAAAAAAAAAAAAAAAAAAAAAATATATAATTTA [CACACA_negctrl_site583],8.45 ± 0.14
11,CAATCATGGGTTTACACACACATGCATGTGAAAATT [CACACA_site1349],9.36 ± 0.36
12,ATTTTTGCAGTAATTAAATAGACAAAATGAAAAAAA [CACACA_negctrl_site1537],8.59 ± 0.49
13,GATGATAATAAATTTATATATAATATTATCTTATGT [GTGCAC_negctrl_site672],8.58 ± 0.45
14,CATATTAAAAATTATTGTACATATTAATGAATATAA [XGTACX_site2734],8.4 ± 0.49
15,AACCAAACAAATAAACGTACAAACATTACATATATT [XGTACX_site2265],9.04 ± 0.49
16,TATTTATAAACATACGCACACATTAAAATATATATA [CACACA_site6051],9.02 ± 0.4
17,ATATATATATATATAGTGCATAAAATAAGTTTCTAA,9.05 ± 0.42
18,TAATAATAAAAATAAACACACATATATCTGTATTTA [CACACA_site5572],8.78 ± 0.38
19,GGTGGAAACAATTACACACACACAAAAAAAAAAAAA [CACACA_site3208],9.46 ± 0.51
20,AATCACAACAGACACACACACAAAAAAAAAAAAAAA [CACACA_site1442],9.35 ± 0.42
21,ATATGTTATATAAATATATATATATATATATATATA [TGCATGCA_negctrl_site594],9.205 ± 0.078
22,TTAATATAATAGAAGTGTACACACATATTTATGTGT [XGTACX_site6672],9.6 ± 0.4

row,Sequence,gcPBM binding intensity (ln)
1,TAAAGAAAAAGAGAATGTACATGAGAAAAGTATACT [XGTACX_site7472],8.99 ± 0.36
2,AGAAAAAAAAAAAAATGTACAGACTTTTTCTTATAA [XGTACX_site6481],8.36 ± 0.58
3,AAAAAAGATAATTATGCACACACACCCACCCACCCA [CACACA_site8825],10.085 ± 0.0071
4,ACACAAAAAAATATATATATATATATATATATGTTA [CACACA_negctrl_site55],9.38 ± 0.4
5,TTTTTATAAATACACATAAATATATATATATATATA [TGCATGCA_negctrl_site393],8.94 ± 0.21
6,AAAAAAAAAAAAAAATGTACATTTTGAAAGGATATA [XGTACX_site8217],8.54 ± 0.65
7,ATGCATTATTAGAATACACACCATACGCATATTTAT [CACACA_site4319],9.08 ± 0.38
8,TATGATTTTAACAACTGTACAATATAATAAATCTAA [XGTACX_site2198],8.47 ± 0.38
9,TGGGTCTCTAACTGGTGTACTATTTACATATTATAC [XGTACX_site8593],9.03 ± 0.46
10,ATATATTTTTAATTACGTACTTAATAATATATACAA [XGTACX_site3285],8.55 ± 0.4
11,TAAAAGAAAAATTAGTGTACCAATATTAACATAAAA [XGTACX_site5474],8.64 ± 0.47
12,TCTCATAGGAAACACACACACACACCCACATATATA [CACACA_site1738],10.1 ± 0.11
13,ATATATTTTTTAAATTTAAAAATTATAAAATTTATA [TGCATGCA_negctrl_site36],8.13 ± 0.33
14,TAAATAAAAAAAAAAAGTACATACATACAAACATAT [XGTACX_site4427],8.94 ± 0.49
15,ATATATGTGCGCGTATGTACATAAAATAAATATACA [XGTACX_site2689],9.46 ± 0.52
16,TAATTCTAAATAAATGTACACACAAAAATAAATGTA [CACACA_site8509],8.92 ± 0.34
17,TATATATATATTATATGTACATAAATATTTATACTC [XGTACX_site114],8.78 ± 0.4
18,TTGATAAAATGGGAGAAATTAAAAAGGAAAAAAAAA [CACACA_negctrl_site1279],8.39 ± 0.54
19,CTATTTTATATGTGCACACATATACACCCACAAATA [CACACA_site1131],9.33 ± 0.2
20,TTATAAAATTTTCTTCTATATTTTAATTATTCTCAT [TGCATGCA_negctrl_site571],8.45 ± 0.67
21,ATTAAAAGAACCAAGTGTACATTCTATATATAAAAA [XGTACX_site4260],8.71 ± 0.51
22,TATACAATATATTTTGGTACACAAACAAAAAAATAT [XGTACX_site2522],8.89 ± 0.52

row,Sequence,gcPBM binding intensity (ln)
1,GAAAAAGACAAAAGGTGTACAATATGAAATATATAT [XGTACX_site373],9.16 ± 0.46
2,ATATTATGATCTATTTTTATATTCTATTTGATAAAT [CACACA_negctrl_site1070],8.58 ± 0.45
3,GTTCACCAAAGGTAACGTACACAAACATATATATAT [XGTACX_site1073],9.03 ± 0.38
4,AAAATAATAATTAAATAATAGTAAATGAAAAATAAA [CACACA_negctrl_site57],8.71 ± 0.56
5,ATAAATACTAGGCACACACACATATAGATTTATATA [CACACA_site7064],9.77 ± 0.47
6,ACTTCATTTTATAAGTGTACATAATTTGTTTATATA [XGTACX_site5453],8.84 ± 0.42
7,TATGTGTTCAGTATTGCACACACACTCCAAAATAAA [CACACA_site8018],9.5 ± 0.18
8,GTTGTCCCCCTTTCTATGCACACTTTAAATTATTCA [CACACA_site52],9.23 ± 0.28
9,AATTTATAAGAATATTGTACGTTTAATATATTGTAA [XGTACX_site7553],8.52 ± 0.35
10,ATTCTAATAGATAGTAGTACCTATAAGTTTTCTTTT [XGTACX_site2315],8.57 ± 0.47
11,AAACGATCTCGATGTTGTACACATTTATATAGAAAC [XGTACX_site4373],8.95 ± 0.46
12,TACTAAAATATATATATGCAACATGAGATATTCAAC [XGTACX_negctrl_site283],8.85 ± 0.38
13,CTAAACTAAACAAACTGTACACAAATAAAACAATAA [XGTACX_site8880],8.95 ± 0.47
14,CATGTGTGTATAATTTGTACATATACATAATAAATA [XGTACX_site2418],9.2 ± 0.3
15,ATATCAACTGAATTGTATAGGCGATAAAAGAAAAAA [CACACA_negctrl_site1334],8.74 ± 0.5
16,TTTATACATACATTCGTGCACATACGTATAACATAT,9.07 ± 0.37
17,AGAATTATAAATTATAGTACATAAAATTTTGATGTA [XGTACX_site5726],8.54 ± 0.36
18,ATATAAATATATGTATGTACACATTTTTTTTTTTTT [XGTACX_site247],8.71 ± 0.4
19,TTTATAACATTTAAGAGTACAAAAAAATAAATAAAT [XGTACX_site1264],8.57 ± 0.44
20,TAAAAGATAAAATATGCATGTGTAATTTTTTTTTTT [TGCATGCA_site955],8.58 ± 0.42
21,GAAATATAATTTATTACACACATTTTAAAAAAATTC [CACACA_site1087],8.58 ± 0.31
22,TTCAACGTTTTGGAATGTACAGAAAGGTATCCATCA [XGTACX_site179],8.62 ± 0.42
